Data reported in PubChem BioAssay AID743279 (National Center for Advancing Translational Sciences (NCATS), 2014).
The campaign covered roughly 360,000 compounds. About 17,000 (4.7%) were called active. The shares of active, inactive and inconclusive entries below differ from those in the screen. No stated cut-off is given here; in the data, active means activity change below about -50%; inconclusive means mostly about -30% to -49%; inactive means weaker than that.

test: qHTS for Inhibitors of Inflammasome Signaling: IL-1-beta AlphaLISA Primary Screen; settings: THP-1 LPS/ATP IL-1B secretion, 16 h; at 57.5 µM, active compounds read low
In short: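 Secreted IL-1B measured by AlphaLISA bead assay after 16 h compound exposure of THP-1 cells; compounds (final up to 57.5 uM) added 1 h before LPS (250 ng/mL) and ATP (1.25 mM) stimulation; lower signal means less secretion.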
On the % scale 0 is the no-effect control and ±100 the full control effect.

| Structure (SMILES) | activity change |
| --- | --- |
| CC12CCC(=O)C=C1CCC1C3CC(O)C(O)(C(=O)CO)C3(C)CC(O)C12F (stereo unspecified) | inconclusive: -37.8% |
| CC(O)CNCCNCc1c(OCc2ccccc2)ccc2ccccc12 (stereo unspecified) | active: -86.8% |
| COc1cc(NC2c3ncccc3C(=O)N2Cc2ccco2)cc(OC)c1OC (stereo unspecified) | inactive: 1.5% |
| CSc1ccc(C2c3[nH]c4ccccc4c3CCN2C(=O)c2ccnn2C)cc1 (stereo unspecified) | inconclusive: -45.8% |
| COc1ccc(CNC(=O)COC(=O)CC2CCCC2)cc1 | inactive: 17.7% |
| COc1ccc(CC2(CO)CCN(Cc3cccn3-c3ccccn3)CC2)cc1 | inconclusive: -32.4% |
| Cc1nc2ccccc2c(=O)n1NC(=O)c1ccc(Cl)c([N+](=O)[O-])c1 | active: -60.1% |
| CCOC(=O)C1(Cc2cccc(Cl)c2)CCCN(C(=O)c2ccc(COC)s2)C1 (stereo unspecified) | inconclusive: -47% |
| O=C(CSc1ccc(Cl)cc1)Nc1ccc(N2CCN(C(=O)c3ccco3)CC2)cc1 | active: -67.9% |
| CCOC(=O)C1CCCN(C(=O)c2cc(C#N)cs2)CC1 (stereo unspecified) | inactive: 0% |
| O=C1C(N2CCOCC2)=C(n2nnc3ccccc32)C(=O)c2ccccc21 | active: -78.4% |
| CCOC(=O)c1cc(CC)sc1NC(=O)c1cc([N+](=O)[O-])ccc1N1CCOCC1 | inactive: 72.5% |
| COC(=O)[C@@]12C[C@@H](CC(=O)NCC3CCCCC3)C(=O)N(CCc3ccc(OC)c(OC)c3)C1=CCC(C)(C)C2 | inconclusive: -40% |
| COc1cc(CCN(C(=O)c2cc3ccccc3[nH]2)C(c2ccccn2)c2nc3ccccc3[nH]2)cc(OC)c1 (stereo unspecified) | inactive: -10.4% |
| Cc1ccc(S(=O)(=O)N2CCCCC2)cc1NC(=O)CNc1ccc(C(F)(F)F)cc1 | inconclusive: -42.1% |
| Cc1[nH]c2ccc(F)cc2c1CCNC(=O)C1CCCCC1C(=O)OCC(F)(F)F (stereo unspecified) | inconclusive: -37.2% |
| COc1ccc2[nH]cc(CCNC(=O)/C=C/[C@H]3O[C@@H](n4cnc5c(NC(=O)c6ccccc6)ncnc54)[C@H](O)[C@@H]3O)c2c1 | inconclusive: -37.6% |
| Cc1ncc(N=Nc2ccccc2Cl)c(-c2ccccc2)n1 | inconclusive: -43.5% |
| CC(C)C1C2=C(CC(C)(C)CC2=O)ON1c1ccccc1 (stereo unspecified) | inconclusive: -32.5% |
| O=C(CCc1ccc(CCC(=O)c2cccs2)s1)c1cccs1 | inactive: 29.7% |
| CCN(CC)CCn1c(=S)[nH]c2cc(C(=O)NCc3ccccc3Cl)ccc2c1=O | inconclusive: -43.6% |
| CCOC(=O)C1=C(COC(=O)/C=C/c2ccc(O)c(OC)c2)NC(=O)NC1C (stereo unspecified) | inconclusive: -46.3% |
| COc1cccc(/C=N/Nc2ncnc3scc(-c4ccccc4)c23)c1OC | active: -66.8% |
| c1ccc2c(c1)COc1c3ncccc3nn1-2 | inconclusive: -30.3% |
| CCN(CC)CC(=O)Nc1c(C#N)cnn1-c1ccccc1 | inactive: 25.1% |
| CCN(CC)c1ccc(NC(=O)C2CC(=O)N(Cc3ccccc3)C2)cc1 (stereo unspecified) | inactive: -6.87% |

| Structure (SMILES) | activity change |
| --- | --- |
| CCOc1cc(C(=O)OCC(=O)Nc2cccc(S(=O)(=O)NC3=NCCCCC3)c2)cc(OCC)c1OCC | inconclusive: -36% |
| CC(C)=CCC/C(C)=C/CNC(=O)C[C@H]1C[C@H](C(=O)N2CCOCC2)[C@@]2(C)c3[nH]c4cc(-c5ccco5)ccc4c3CCN2C1=O | inconclusive: -31.5% |
| COc1ccc(CNC(=O)COC(=O)CCc2c[nH]c3ccccc23)cc1 | inconclusive: -33% |
| CC1(Cc2cccc(C#N)c2)C(=O)Nc2ccc(-c3cccc(C(F)(F)F)c3)cc21 (stereo unspecified) | inconclusive: -30.3% |
| CN(Cc1ccc(OC(F)F)cc1)C(=O)c1ccc2c(=O)n3c(nc2c1)CCC3 | inconclusive: -35.2% |
| CCOC(=O)N1CCN(C(=O)c2ccc3c(c2)N(C)C(=O)/C(=C\c2ccc(OCC)c(OC)c2)S3)CC1 | inconclusive: -33.8% |
| O=C1/C(=C\c2cccs2)SC(=S)N1C1CCS(=O)(=O)C1 (stereo unspecified) | inconclusive: -39.5% |
| CCCC1(c2ccccc2)NC(=O)N(CC(=O)N(C)Cc2c(F)cccc2Cl)C1=O (stereo unspecified) | inconclusive: -31.6% |
| Cc1cccc(N2CCN(C(=O)NCc3ccc(F)cc3)CC2)c1C | inconclusive: -43.3% |
| CCN(CC)C(=O)Cn1nnc(-c2ccc(S(C)(=O)=O)cc2)n1 | inactive: -4.84% |
| O=C(CCl)Nc1cc(-c2ccccc2)nn1-c1ccccc1 | active: -105% |
| COC(=O)[C@@]12C[C@@H](CC(=O)NCc3ccc(OC)c(OC)c3)C(=O)N(CCc3ccc(OC)c(OC)c3)C1=CCC(C)(C)C2 | inactive: -27.9% |
| COc1ccccc1-c1ccc(SCc2ccc(F)cc2)nn1 | inconclusive: -37.4% |
| CCCCCCCC(=O)NC(Nc1ccccc1OC)C(Cl)(Cl)Cl (stereo unspecified) | inconclusive: -32.8% |
| CCC(Oc1ccccc1)C(=O)Nc1nc2ccccc2[nH]1 (stereo unspecified) | inconclusive: -35.2% |
| CCOC(=O)c1c(C(F)(F)C(F)(F)C(F)(F)C(F)(F)F)n[nH]c1C | inactive: 18.6% |
| Cc1cc(NCc2ccccn2)n2nc(C)c(-c3ccc(Cl)cc3)c2n1 | inconclusive: -42.5% |
| CC(C)CC(NC(=O)OC(C)(C)C)c1cn([C@@H](Cc2cc3ccccc3[nH]2)C(=O)N2CCN(C(=O)OC(C)(C)C)CC2)nn1 (stereo partly specified) | inconclusive: -45.1% |
| c1coc(-c2nc3nc4ccccc4nc3n2-c2ccc3c(c2)OCCO3)c1 | inactive: -6.92% |
| CC(C)Cn1c(SCC(=O)Nc2cccnc2Cl)nnc1-c1ccco1 | inconclusive: -40.9% |
| Cc1c(NC(=O)Nc2ccc(Cl)c(Cl)c2)sc(=S)n1C | active: -96.7% |
| Cc1cccc(C(C)C)c1NS(=O)(=O)c1cn(C)nc1C | inactive: 8.55% |
| CC(=O)OCC(=O)C1(O)CCC2C3CCC4=CC(=O)CCC4(C)C3C(O)CC21C (stereo unspecified) | inconclusive: -46.9% |
| COc1ccc(N(CC(O)Cn2nnc3ccccc32)S(=O)(=O)c2ccc(C)cc2)cc1 (stereo unspecified) | inconclusive: -30.9% |
| COc1ccc(-n2nc([N+](=O)[O-])c(=NCc3ccc4c(c3)OCO4)n2O)cc1 | inconclusive: -35.4% |
